{"source": "the supplement of paper PMC8728848", "assay_in_all_cases": "glycan array binding signal (z-score within array); higher = stronger binding", "settings_in_all_cases": "glycan notation: IUPAC condensed, linker removed", "key": {"[1]": {"target": "Neu5Ac(a2-3)Gal(b1-4)GlcNAc(b1-6)GalNAc", "outline": "(§1)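 The binding signal is a Z-score computed within each array and averaged over linkers. Arrays of the same protein sequence at different concentrations or buffers were also averaged together. Data originate from 3228 arrays in the Consortium for Functional Glycomics database, kept only where the protein sequence was available.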"}, "[2]": {"target": "Neu5Ac(a2-3)Gal(b1-4)GlcNAc(b1-6)[Gal(b1-3)]GalNAc", "outline": "as §1"}, "[3]": {"target": "Neu5Ac(a2-3)Gal(b1-4)GlcNAc(b1-6)[Neu5Ac(a2-3)Gal(b1-3)]GalNAc", "outline": "as §1"}, "[4]": {"target": "Neu5Ac(a2-3)Gal(b1-4)GlcNAc6S", "outline": "as §1"}, "[5]": {"target": "Neu5Ac(a2-3)Gal(b1-4)[Fuc(a1-3)]GlcNAc", "outline": "as §1"}, "[6]": {"target": "Neu5Ac(a2-3)Gal(b1-4)[Fuc(a1-3)]GlcNAc(b1-2)Man", "outline": "as §1"}, "[7]": {"target": "Neu5Ac(a2-3)Gal(b1-4)[Fuc(a1-3)]GlcNAc(b1-3)Gal", "outline": "as §1"}, "[8]": {"target": "Neu5Ac(a2-3)Gal(b1-4)[Fuc(a1-3)]GlcNAc(b1-3)Gal(b1-4)GlcNAc", "outline": "as §1"}, "[9]": {"target": "Neu5Ac(a2-3)Gal(b1-4)[Fuc(a1-3)]GlcNAc(b1-3)Gal(b1-4)[Fuc(a1-3)]GlcNAc(b1-3)Gal(b1-4)[Fuc(a1-3)]GlcNAc", "outline": "as §1"}, "[10]": {"target": "Neu5Ac(a2-3)Gal(b1-4)[Fuc(a1-3)]GlcNAc(b1-3)GalNAc", "outline": "as §1"}, "[11]": {"target": "Neu5Ac(a2-3)Gal(b1-4)[Fuc(a1-3)]GlcNAc(b1-6)[Gal(b1-3)]GalNAc", "outline": "as §1"}, "[12]": {"target": "Neu5Ac(a2-3)Gal(b1-4)[Fuc(a1-3)]GlcNAc(b1-6)[Neu5Ac(a2-3)Gal(b1-3)]GalNAc", "outline": "as §1"}, "[13]": {"target": "Neu5Ac(a2-3)Gal(b1-4)[Fuc(a1-3)]GlcNAc6S", "outline": "as §1"}, "[14]": {"target": "Neu5Ac(a2-3)Gal6S(b1-4)GlcNAc", "outline": "as §1"}, "[15]": {"target": "Neu5Ac(a2-3)Gal6S(b1-4)[Fuc(a1-3)]GlcNAc", "outline": "as §1"}, "Neu5Ac(a2-3)GalNAc": {"target": "Neu5Ac(a2-3)GalNAc", "outline": "as §1"}, "[16]": {"target": "Neu5Ac(a2-3)GalNAc(b1-4)GlcNAc", "outline": "as §1"}, "[17]": {"target": "Neu5Ac(a2-3)[GalNAc(b1-4)]Gal(b1-4)Glc", "outline": "as §1"}, "[18]": {"target": "Neu5Ac(a2-3)[GalNAc(b1-4)]Gal(b1-4)GlcNAc", "outline": "as §1"}, "[19]": {"target": "Neu5Ac(a2-3)[GalNAc(b1-4)]Gal(b1-4)GlcNAc(b1-3)GalNAc", "outline": "as §1"}, "[20]": {"target": "Neu5Ac(a2-3)[Neu5Ac(a2-6)]GalNAc", "outline": "as §1"}, "Neu5Ac(a2-6)Gal": {"target": "Neu5Ac(a2-6)Gal", "outline": "as §1"}, "[21]": {"target": "Neu5Ac(a2-6)Gal(b1-3)GlcNAc(b1-3)[Gal(b1-4)GlcNAc(b1-6)]Gal(b1-4)Glc", "outline": "as §1"}, "Neu5Ac(a2-6)Gal(b1-4)Glc": {"target": "Neu5Ac(a2-6)Gal(b1-4)Glc", "outline": "as §1"}, "[22]": {"target": "Neu5Ac(a2-6)Gal(b1-4)GlcNAc", "outline": "as §1"}, "[23]": {"target": "Neu5Ac(a2-6)Gal(b1-4)GlcNAc(b1-2)Man", "outline": "as §1"}, "[24]": {"target": "Neu5Ac(a2-6)Gal(b1-4)GlcNAc(b1-2)Man(a1-3)Man(b1-4)GlcNAc(b1-4)GlcNAc", "outline": "as §1"}, "[25]": {"target": "Neu5Ac(a2-6)Gal(b1-4)GlcNAc(b1-2)Man(a1-3)[Gal(b1-4)GlcNAc(b1-2)Man(a1-6)]Man(b1-4)GlcNAc(b1-4)GlcNAc", "outline": "as §1"}, "[26]": {"target": "Neu5Ac(a2-6)Gal(b1-4)GlcNAc(b1-2)Man(a1-3)[GlcNAc(b1-4)][Neu5Ac(a2-6)Gal(b1-4)GlcNAc(b1-2)Man(a1-6)]Man(b1-4)GlcNAc(b1-4)GlcNAc", "outline": "as §1"}, "[27]": {"target": "Neu5Ac(a2-6)Gal(b1-4)GlcNAc(b1-2)Man(a1-3)[Man(a1-6)]Man(b1-4)GlcNAc(b1-4)GlcNAc", "outline": "as §1"}}, "note": "Some of the results follow."}
{"binder": "Mermaid3 (Stilbonema majum) (protein) MGSSHHHHHHSSGLVPRGSHMAASGWLRSPQGTVVKLYRRSLSWSKADEFCKDVDGRLVVDRTADMHLFLIKNVLKEKKSRVWVGLRRTASHSRTWIWSDGTRQNEGDLDANLWLRDEPNDAAGEEECALFMYSPWEKAWGLNDYLCRGGCRNYQFICEKWIR", "values": [{"measurement": "glycan array binding signal (z-score)", "setting": "[1]", "value": -0.776}, {"measurement": "glycan array binding signal (z-score)", "setting": "[2]", "value": 4.77}, {"measurement": "glycan array binding signal (z-score)", "setting": "[3]", "value": -0.132}, {"measurement": "glycan array binding signal (z-score)", "setting": "[4]", "value": -0.701}, {"measurement": "glycan array binding signal (z-score)", "setting": "[5]", "value": -0.77}, {"measurement": "glycan array binding signal (z-score)", "setting": "[6]", "value": -0.553}, {"measurement": "glycan array binding signal (z-score)", "setting": "[7]", "value": -0.782}, {"measurement": "glycan array binding signal (z-score)", "setting": "[8]", "value": -0.249}, {"measurement": "glycan array binding signal (z-score)", "setting": "[9]", "value": -0.718}, {"measurement": "glycan array binding signal (z-score)", "setting": "[10]", "value": -0.224}, {"measurement": "glycan array binding signal (z-score)", "setting": "[11]", "value": -0.742}, {"measurement": "glycan array binding signal (z-score)", "setting": "[12]", "value": -0.153}, {"measurement": "glycan array binding signal (z-score)", "setting": "[13]", "value": -0.098}, {"measurement": "glycan array binding signal (z-score)", "setting": "[14]", "value": -0.465}, {"measurement": "glycan array binding signal (z-score)", "setting": "[15]", "value": -0.532}, {"measurement": "glycan array binding signal (z-score)", "setting": "Neu5Ac(a2-3)GalNAc", "value": 2.33}, {"measurement": "glycan array binding signal (z-score)", "setting": "[16]", "value": 0.426}, {"measurement": "glycan array binding signal (z-score)", "setting": "[17]", "value": -0.811}, {"measurement": "glycan array binding signal (z-score)", "setting": "[18]", "value": -0.598}, {"measurement": "glycan array binding signal (z-score)", "setting": "[19]", "value": -0.61}, {"measurement": "glycan array binding signal (z-score)", "setting": "[20]", "value": 4.44}, {"measurement": "glycan array binding signal (z-score)", "setting": "Neu5Ac(a2-6)Gal", "value": -0.644}, {"measurement": "glycan array binding signal (z-score)", "setting": "[21]", "value": -0.731}, {"measurement": "glycan array binding signal (z-score)", "setting": "Neu5Ac(a2-6)Gal(b1-4)Glc", "value": -0.474}, {"measurement": "glycan array binding signal (z-score)", "setting": "[22]", "value": -0.565}, {"measurement": "glycan array binding signal (z-score)", "setting": "[23]", "value": 0.55}, {"measurement": "glycan array binding signal (z-score)", "setting": "[24]", "value": -0.256}, {"measurement": "glycan array binding signal (z-score)", "setting": "[25]", "value": 1.92}, {"measurement": "glycan array binding signal (z-score)", "setting": "[26]", "value": -0.644}, {"measurement": "glycan array binding signal (z-score)", "setting": "[27]", "value": 1.05}]}
